The supplement of paper PMC9446081
Out of some 39,000 compounds screened, about 220 (0.56%) showed activity. The list shows a part of the results.

tested on: Escherichia coli K-12 BW25113; test: relative growth (OD600 normalised to plate interquartile mean) (fraction); higher = less growth inhibition, active = 0.2 or less; settings: 50 µM; LB; incubation time: overnight (16-24 h)
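Note: static incubation at 37 °C against the wild-type strain, values averaged over two biological replicates.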

Compound	relative growth
CCCNC(=O)c1cc2c(c(-c3cccc(-c4cc5ccccc5o4)c3)n1)[C@H](CCO)N(C(=O)NC(C)C)C2	inactive: 0.99
C[C@H]1CN([C@@H](C)CO)S(=O)(=O)c2ccc(C#Cc3cccc(F)c3)cc2O[C@@H]1CN(C)C(=O)CN1CCOCC1	inactive: 1.02
C/C=C/c1ccc([C@@H]2[C@H](CO)N(S(=O)(=O)Cc3ccccc3)C23CN(C(=O)C2CCOCC2)C3)cc1	inactive: 1.03
C[C@@H]1CN([C@@H](C)CO)C(=O)Cc2cc(NC(=O)Cc3ccccc3)ccc2O[C@@H]1CN(C)C(=O)Nc1cccc2ccccc12	inactive: 1.04
C[C@@H]1CN([C@H](C)CO)C(=O)c2cc(-c3ccc(F)cc3)cnc2O[C@@H]1CN(C)C(=O)Cc1ccccn1	inactive: 0.989
CN1C(=O)c2cc(NC(=O)c3cccs3)ccc2OC[C@H]2O[C@@H](CC(=O)NCC(F)(F)F)CC[C@@H]21	inactive: 1.04
Cc1noc(C)c1NC(=O)Nc1ccc2c(c1)CC(=O)N([C@@H](C)CO)C[C@@H](C)[C@H](CN(C)CC1CC1)O2	inactive: 0.985
C[C@H]1CN([C@@H](C)CO)C(=O)CCCn2cc(nn2)CO[C@@H]1CN(C)C(=O)Nc1cccc2ccccc12	inactive: 0.978
C[C@H]1CCCCO[C@H](CN(C)C(=O)c2ccncc2)[C@@H](C)CN([C@@H](C)CO)C(=O)c2cc(NS(=O)(=O)c3cn(C)cn3)ccc2O1	inactive: 1.01
COc1ccc(S(=O)(=O)N(C)C[C@@H]2OCCCC[C@H](C)Oc3ccc(NS(=O)(=O)c4cn(C)cn4)cc3C(=O)N([C@@H](C)CO)C[C@@H]2C)cc1	inactive: 0.91
Cc1noc(C)c1S(=O)(=O)Nc1ccc2c(c1)C(=O)N([C@@H](C)CO)C[C@@H](C)[C@H](CN(C)Cc1ccccc1)O2	inactive: 0.988
COc1ccc(NC(=O)Nc2cccc3c2O[C@H](CN(C)Cc2ccc(C(=O)Nc4ccccc4N)cc2)[C@@H](C)CN([C@H](C)CO)C3=O)cc1	inactive: 0.975
Cc1noc(C)c1NC(=O)Nc1ccc2c(c1)C(=O)N([C@@H](C)CO)C[C@H](C)[C@@H](CN(C)Cc1ccc(Cl)c(Cl)c1)OCCCC[C@@H](C)O2	inactive: 1.04
Cc1noc(C)c1S(=O)(=O)Nc1cccc2c1O[C@H](CN(C)C(=O)NC1CCCCC1)[C@H](C)CN([C@H](C)CO)C2=O	inactive: 0.887
C[C@H]1CN([C@@H](C)CO)C(=O)c2cc(NC(=O)Cn3cnnn3)ccc2O[C@H]1CN(C)C(=O)Nc1ccccc1	inactive: 1.02
C[C@@H]1CN([C@@H](C)CO)C(=O)Cc2cc(NS(=O)(=O)c3ccc(F)cc3)ccc2O[C@@H]1CN(C)Cc1ccc(Cl)c(Cl)c1	inactive: 1
COc1ccc(NC(=O)Nc2ccc3c(c2)C(=O)N([C@H](C)CO)C[C@H](C)[C@@H](CN(C)C(=O)Nc2ccc4c(c2)OCO4)OCCCC[C@@H](C)O3)cc1	inactive: 1.03
Cc1ccc(S(=O)(=O)Nc2ccc3c(c2)C(=O)N([C@@H](C)CO)C[C@H](C)[C@H](CN(C)S(=O)(=O)c2ccc(F)cc2)OCCCC[C@@H](C)O3)cc1	inactive: 1.02
CCCCCCCCCCCCCCCCCC(=O)O	inactive: 1.01

Compound	relative growth
C[C@@H]1CN([C@@H](C)CO)S(=O)(=O)c2ccc(-c3cccnc3)cc2O[C@@H]1CN(C)C(=O)NC1CCCCC1	inactive: 1
COCC#Cc1ccc2c(c1)O[C@H](CN(C)C(=O)CN(C)C)[C@H](C)CN([C@@H](C)CO)S2(=O)=O	inactive: 0.966
C[C@H]1CN([C@@H](C)CO)C(=O)c2cccc(NC(=O)c3ccc(-c4nccs4)cc3)c2O[C@H]1CN(C)S(C)(=O)=O	inactive: 0.981
C[C@@H]1CN([C@@H](C)CO)C(=O)Cc2cc(NC(=O)Cc3ccccc3)ccc2O[C@@H]1CN(C)S(=O)(=O)c1ccc(F)cc1	inactive: 0.993
COc1ccc(NC(=O)Nc2ccc3c(c2)C(=O)N([C@H](C)CO)C[C@H](C)[C@H](CN(C)C(=O)Nc2c(C)noc2C)OCCCC[C@@H](C)O3)cc1	inactive: 1
C[C@H](CO)N1C[C@H](C)[C@H](CN(C)S(C)(=O)=O)Oc2ccc(NC(=O)NC3CCCCC3)cc2C1=O	inactive: 1.06
O=C(C[C@@H]1CC[C@@H]2[C@H](COC[C@@H](O)CN2C(=O)Nc2ccc(Cl)cc2)O1)NCCc1ccncc1	inactive: 0.944
Oc1ccc(C=Cc2cc(O)cc(O)c2)cc1	inactive: 1.04
Cc1ccc(S[C@]2(C(=O)NCc3ccccc3)CC(=O)N(Cc3cc(C(F)(F)F)cc(C(F)(F)F)c3)[C@@H]2c2ccc(CO)cc2)cc1	inactive: 1.01
C[C@@H]1CN([C@@H](C)CO)C(=O)c2cccc(NC(=O)NC3CCCCC3)c2O[C@@H]1CN(C)C(=O)Nc1ccc(C(F)(F)F)cc1	inactive: 0.975
NC(CC(=O)N1CCn2c(nnc2C(F)(F)F)C1)Cc1cc(F)c(F)cc1F.O.O=P(O)(O)O (stereo not drawn)	inactive: 0.87
COCC#Cc1ccc([C@H]2[C@H]3CN(C(=O)c4ccncc4)CC(=O)N3[C@H]2CO)cc1	inactive: 1.01
CC(=O)NCc1c(I)c(NC(C)=O)c(I)c(C(=O)O)c1I	inactive: 0.978
Nc1ncnc2c1ncn2C1OC(CO)C(O)C1O (stereo not drawn)	inactive: 1.16
C[C@@H]1CN([C@@H](C)CO)C(=O)c2cccc(NC(=O)CCCCCC(=O)Nc3ccccc3N)c2O[C@@H]1CN(C)S(=O)(=O)c1cn(C)cn1	inactive: 0.984
C[C@@H]1CCCCO[C@H](CN(C)C(=O)Nc2ccc(F)cc2)[C@@H](C)CN([C@@H](C)CO)C(=O)c2cc(NS(=O)(=O)c3ccccc3)ccc2O1	inactive: 1.03
O=C(CCCCCCC(=O)Nc1ccc([C@H]2O[C@@H](CSc3nc(-c4ccccc4)c(-c4ccccc4)o3)C[C@@H](c3ccc(CO)cc3)O2)cc1)NO	inactive: 0.941
COc1ccccc1-c1cnc2c(c1)C(=O)N([C@H](C)CO)C[C@H](C)[C@@H](CN(C)C(=O)c1ccncc1)O2	inactive: 0.985
Nc1cncnc1	inactive: 0.993
